Where two headings read alike, the source gives them in different places. At least one peptide structure holds a part that was inferred or is arguable (an end, a ring closure or a residue). Bridge positions count the residues as written; N and C are the ends. Peptide text beside a SMILES is read from it.
Target: T1, Hu DR5 ECD (SEQ ID NO: 105) (Homo sapiens, UniProt O14763, A67V/E190F/V191A)
T1 construct: Human DR5-ECD long form polypeptide
Assay: Phage competition Ic50 ELISA (phagemid binding assay), competitor DR5 ECD
Description: The Apo-2L receptor binding peptides disclosed herein were identified from the bacteriophage peptide library constructs shown in Tables I and II using the following phagemid binding assay.
1. Coat microtiter plate wells with 80 ul of 1 ug/ml Apo-2L receptor DR5 ECD (SEQ ID NO: 105) (in 50 mM sodium carbonate pH 9.6) at 4° C. overnight.
2. Remove coat and block with 200 ul PBS/0.1% BSA. Incubate 1 hour at room temperature.
3. Prepare competing receptor solutions (100 ul/sample).
Dispense SOul binding buffer to row H through B in a new non-sticky 96-well plate.
Dispense 75 ul competing receptor solution to row A.
Make 3-fold serial dilutions by transferring 25 ul solution along columns except for row H (use fresh tip set for each transfer).
4. Prepare appropriate subsaturating phage dilution (predetermined from phage dilution series).
Transfer 50 ul of phage diluent to each microtiter well of the non-sticky plate. Start at row H then G,F,E,D,C,B,A respectively.
Incubate at R.T. for 2 hours.
5. Shake block off plate which has been coated with DR5 ECD (SEQ ID NO: 105) and rinse 10 times with PBS+0.05% tween 20.
6. Transfer 80 ul the mixture of competing receptor and phage from the non-sticky plate to DR5 ECD coated plate and incubate 20 minutes at room temperature.
7. Make a 1:5000 dilution of HRP conjugate anti-M13 monoclonal Ab (Amersham Pharmacia Biotech) into binding buffer.
Rinse plate 10 times with PBS/tween20 (be thorough here to remove vast excess of non displaying phage).
Add 80 ul of Ab diluent to row H through A.
8. Mix TMB peroxidase substrate and peroxidase solution B at equal volume.
Rinse plate 10 times with PBS/tween20.
Add 80 ul of substrate to row H through A.
Incubate as required to develop and stop with 80 ul 2.5M H2SO4.
A number of bacteriophage clones expressing peptides of interest were generated using the above methods and then purified using limiting dilution. In order to further characterize specific clones of interest (e.g. to determine Ic 50 values), phage clones were grown and then purified using a polyethylene glycol based method as described in Sidhu et al., Methods Enzymol. 328, 333-363 (2000). Alternative methods for generating and purifying bacteriophages are also known in the art. See, e.g. Current Protocols In Molecular Biology, Volume 1, Units 1, 5 and 6, Frederick M. Ausubel et al. eds., 1995.
Phage clones identified using the above methods were grown and then purified using the following polyethylene glycol based method. Briefly, a bacterial culture infected with a phage clone of interest is grown under conditions favorable to phage growth and then centrifuged for 10 min at 2° C. and 16,000 g. The supernatant is then transferred to a fresh centrifuge tube and a 1/5 volume of PEG-NaCl (PEG 8000 (200 g/L), NaCl (146 g/L), autoclaved) is added. The mixture is then incubated for 5 minutes at room temperature. The mixture is then centrifuged as above and the supernatant decanted. The supernatant is then respun briefly and the remaining supernatant removed. The phage pellet is then resuspended in 1/20 volume of PBS (or other analogous buffer). Insoluble matter is then pelleted by centrifugation. The supernatant containing the purified phage is saved and used in assays such as Ic 50 and Ec 50 assays that are described in the following examples.
In the Tables provided herein, “Ic 50” refers to the measure of the concentration of peptide needed to inhibit 50% of Apo-2L (e.g. amino acids 114 to 281 of SEQ ID NO: 1) binding to an Apo-2L receptor molecule (e.g. DR4-IgG (SEQ ID NO: 108) or DR5 ECD (SEQ ID NO: 105) etc.). The peptides are classified such that class 1-class 4 represent a, b, c, and d respectively.

[1] = Positive clones, phage competition, competitor DR5 ECD (Comp/DR5 EcD), read-out: IC50
[2] = Table IV cross-reactivity, phage clones, read-out: Hu DR5 ECD (SEQ ID NO: 105) Ic50

T1 sequence (O14763 with tags, fused parts or gaps A67V/E190F/V191A): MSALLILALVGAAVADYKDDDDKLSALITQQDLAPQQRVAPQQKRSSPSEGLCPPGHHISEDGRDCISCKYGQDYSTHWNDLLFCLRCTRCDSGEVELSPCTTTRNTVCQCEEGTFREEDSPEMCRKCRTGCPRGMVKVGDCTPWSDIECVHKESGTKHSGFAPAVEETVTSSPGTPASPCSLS

| SMILES | IC50 [1] [nM] | IC50 [2] [nM] |
| --- | --- | --- |
| CSCC[C@H](NC(=O)[C@H](CC(C)C)NC(=O)[C@H](CCCCN)NC(=O)[C@H](CCC(=O)O)NC(=O)[C@@H]1CSSC[C@H](NC(=O)[C@@H](NC(=O)[C@@H](N)CCC(=O)O)C(C)C)C(=O)N[C@@H](CCSC)C(=O)N[C@@H]([C@@H](C)O)C(=O)N[C@@H](CO)C(=O)N1)C(=O)N[C@@H](CO)C(=O)N[C@@H](C)C(=O)N[C@@H](CC(C)C)C(=O)O [LB845] (H-EVCMTSCEKLMSAL-OH; disulfide 3-7 (inferred); N-terminus and C-terminus assumed) | 39.2 |  |
| CSCC[C@H](NC(=O)[C@H](CC(C)C)NC(=O)[C@H](CCCCN)NC(=O)[C@H](CCC(=O)O)NC(=O)[C@@H]1CSSC[C@H](NC(=O)[C@@H](NC(=O)[C@@H](N)CCC(=O)O)C(C)C)C(=O)N[C@@H](CCSC)C(=O)N[C@@H]([C@@H](C)O)C(=O)N[C@@H](CO)C(=O)N1)C(=O)N[C@@H](CO)C(=O)N[C@@H](C)C(=O)O [LB846] (H-EVCMTSCEKLMSA-OH; disulfide 3-7 (inferred); N-terminus and C-terminus assumed) | 49 |  |
| CSCC[C@H](NC(=O)[C@H](CC(C)C)NC(=O)[C@H](CCCCN)NC(=O)[C@H](CCC(=O)O)NC(=O)[C@@H]1CSSC[C@H](NC(=O)[C@@H](NC(=O)[C@@H](N)CCC(=O)O)C(C)C)C(=O)N[C@@H](CCSC)C(=O)N[C@@H]([C@@H](C)O)C(=O)N[C@@H](CO)C(=O)N1)C(=O)N[C@@H](CO)C(=O)O [LB847] (H-EVCMTSCEKLMS-OH; disulfide 3-7 (inferred); N-terminus and C-terminus assumed) | 735 |  |
| CSCC[C@H](NC(=O)[C@H](CC(C)C)NC(=O)[C@H](CCCCN)NC(=O)[C@H](CCC(=O)O)NC(=O)[C@@H]1CSSC[C@H](NC(=O)[C@@H](NC(=O)[C@@H](N)CCC(=O)O)C(C)C)C(=O)N[C@@H](CCSC)C(=O)N[C@@H]([C@@H](C)O)C(=O)N[C@@H](CO)C(=O)N1)C(=O)O [LB848] (H-EVCMTSCEKLM-OH; disulfide 3-7 (inferred); N-terminus and C-terminus assumed) | 29400 |  |
| CSCC[C@H](NC(=O)[C@H](C)NC(=O)[C@H](C)NC(=O)[C@H](CCSC)NC(=O)[C@H](Cc1c[nH]c2ccccc12)NC(=O)[C@H](CC(N)=O)NC(=O)[C@H](C)NC(=O)[C@H](CCCCN)NC(=O)[C@H](CCSC)NC(=O)[C@H](CC(C)C)NC(=O)[C@H](CCCCN)NC(=O)[C@H](CC(=O)O)NC(=O)[C@@H]1CSSC[C@H](NC(=O)[C@@H](NC(=O)[C@H](CCC(=O)O)NC(=O)[C@@H](N)CCC(N)=O)C(C)C)C(=O)N[C@@H](CCSC)C(=O)N[C@@H]([C@@H](C)O)C(=O)N[C@@H](CO)C(=O)N1)C(=O)O [LB867] (H-QEVCMTSCDKLMKANWMAAM-OH; disulfide 4-8 (inferred); N-terminus and C-terminus assumed) | 29.4 |  |
| CSCC[C@@H]1NC(=O)[C@H](Cc2ccccc2)NC(=O)[C@H](C(C)C)NC(=O)[C@H](CCC(N)=O)NC(=O)[C@@H](NC(=O)[C@@H](NC(=O)[C@H](CC(=O)O)NC(=O)[C@H](CCC(=O)O)NC(=O)[C@@H](NC(=O)[C@H](CCSC)NC(=O)[C@H](CCC(=O)O)NC(=O)[C@@H](N)Cc2c[nH]cn2)[C@@H](C)O)[C@@H](C)O)CSSC[C@@H](C(=O)N[C@@H](CCCNC(=N)N)C(=O)N2CCC[C@H]2C(=O)N[C@@H](CCSC)C(=O)N[C@@H](C)C(=O)N[C@H](C(=O)N[C@H](C(=O)O)C(C)C)C(C)C)NC(=O)[C@H](CO)NC1=O [LB874] | 5.9 | 5.9 |
| CC(C)C[C@H](NC(=O)[C@H](CCCNC(=N)N)NC(=O)[C@H](CO)NC(=O)[C@@H]1CSSC[C@H](NC(=O)[C@@H](NC(=O)[C@H](CCC(=O)O)NC(=O)CN)C(C)C)C(=O)N[C@@H](CC(C)C)C(=O)N[C@@H]([C@@H](C)O)C(=O)N[C@@H](CC(C)C)C(=O)N1)C(=O)N[C@@H](CCCNC(=N)N)C(=O)O [LB934] (H-GEVCLTLCSRLR-OH; disulfide 4-8 (inferred); N-terminus and C-terminus assumed) | 3 |  |
| CC(C)C[C@H](NC(=O)[C@H](CCCNC(=N)N)NC(=O)[C@H](CC(=O)O)NC(=O)[C@@H]1CSSC[C@H](NC(=O)[C@@H](NC(=O)[C@H](CCC(=O)O)NC(=O)CN)C(C)C)C(=O)N[C@@H](CC(C)C)C(=O)N[C@@H]([C@@H](C)O)C(=O)N[C@@H](CO)C(=O)N1)C(=O)N[C@@H](CCCNC(=N)N)C(=O)O [LB937] (H-GEVCLTSCDRLR-OH; disulfide 4-8 (inferred); N-terminus and C-terminus assumed) | 11.9 |  |
| CC(C)C[C@H](NC(=O)[C@H](CCCNC(=N)N)NC(=O)[C@H](CO)NC(=O)[C@@H]1CSSC[C@H](NC(=O)[C@@H](NC(=O)[C@H](CCC(=O)O)NC(=O)CN)C(C)C)C(=O)N[C@@H](CC(C)C)C(=O)N[C@@H]([C@@H](C)O)C(=O)N[C@@H](CCC(=O)O)C(=O)N1)C(=O)N[C@@H](CCCNC(=N)N)C(=O)N[C@@H](CCC(N)=O)C(=O)N[C@@H](CCCNC(=N)N)C(=O)O [LB946] | 17.6 | 17.6 |
| CC(C)C[C@H](NC(=O)[C@H](CCCNC(=N)N)NC(=O)[C@H](CO)NC(=O)[C@@H]1CSSC[C@H](NC(=O)[C@@H](NC(=O)[C@H](CCC(=O)O)NC(=O)CN)C(C)C)C(=O)N[C@@H](CC(C)C)C(=O)N[C@@H]([C@@H](C)O)C(=O)N[C@@H](CCC(=O)O)C(=O)N1)C(=O)N[C@@H](CCCNC(=N)N)C(=O)O [LB949] | 11.2 | 11.2 |
| CC(C)C[C@H](NC(=O)[C@H](CCCNC(=N)N)NC(=O)[C@H](CO)NC(=O)[C@@H]1CSSC[C@H](NC(=O)[C@@H](NC(=O)[C@H](CCC(=O)O)NC(=O)CN)C(C)C)C(=O)N[C@@H](CC(C)C)C(=O)N[C@@H]([C@@H](C)O)C(=O)N[C@@H](CC(C)C)C(=O)N1)C(=O)N[C@H](C(=O)O)[C@@H](C)O [LB953] (H-GEVCLTLCSRLT-OH; disulfide 4-8 (inferred); N-terminus and C-terminus assumed) | 23.5 | 23.5 |
| CC(C)C[C@H](NC(=O)[C@H](CCCCN)NC(=O)[C@H](CO)NC(=O)[C@@H]1CSSC[C@H](NC(=O)[C@@H](NC(=O)[C@H](CCC(=O)O)NC(=O)CN)C(C)C)C(=O)N[C@@H](CC(C)C)C(=O)N[C@@H]([C@@H](C)O)C(=O)N[C@@H](CC(C)C)C(=O)N1)C(=O)N[C@H](C(=O)O)[C@@H](C)O [LB956] (H-GEVCLTLCSKLT-OH; disulfide 4-8 (inferred); N-terminus and C-terminus assumed) | 35.3 | 35.3 |
| CC(C)C[C@H](NC(=O)[C@H](CCCCN)NC(=O)[C@H](CO)NC(=O)[C@@H]1CSSC[C@H](NC(=O)[C@@H](NC(=O)[C@H](CCC(=O)O)NC(=O)CN)C(C)C)C(=O)N[C@@H](CC(C)C)C(=O)N[C@@H]([C@@H](C)O)C(=O)N[C@@H](CCC(=O)O)C(=O)N1)C(=O)N[C@@H](CCCNC(=N)N)C(=O)O [LB959] (H-GEVCLTECSKLR-OH; disulfide 4-8 (inferred); N-terminus and C-terminus assumed) | 23.5 | 23.5 |
| CC(C)C[C@H](NC(=O)[C@H](CCCNC(=N)N)NC(=O)[C@H](CO)NC(=O)[C@@H]1CSSC[C@H](NC(=O)[C@@H](NC(=O)[C@H](CCC(=O)O)NC(=O)CN)C(C)C)C(=O)N[C@@H](CC(C)C)C(=O)N[C@@H]([C@@H](C)O)C(=O)N[C@@H](CCC(=O)O)C(=O)N1)C(=O)N[C@H](C(=O)O)[C@@H](C)O [LB960] (H-GEVCLTECSRLT-OH; disulfide 4-8 (inferred); N-terminus and C-terminus assumed) | 17.6 | 17.6 |

— patent US20070066800A1, “Apo2l(trail) receptor binding peptides and uses thereof” (priority 2003, published 2007)
